Some of the results follow. At the low end of the ranking the order means little. Measured with an extract: partners may take part in the binding.

In this assay the target is T1, HNF4alpha2 (COS-7 nuclear extract) (UniProt P41235).
T1 sequence: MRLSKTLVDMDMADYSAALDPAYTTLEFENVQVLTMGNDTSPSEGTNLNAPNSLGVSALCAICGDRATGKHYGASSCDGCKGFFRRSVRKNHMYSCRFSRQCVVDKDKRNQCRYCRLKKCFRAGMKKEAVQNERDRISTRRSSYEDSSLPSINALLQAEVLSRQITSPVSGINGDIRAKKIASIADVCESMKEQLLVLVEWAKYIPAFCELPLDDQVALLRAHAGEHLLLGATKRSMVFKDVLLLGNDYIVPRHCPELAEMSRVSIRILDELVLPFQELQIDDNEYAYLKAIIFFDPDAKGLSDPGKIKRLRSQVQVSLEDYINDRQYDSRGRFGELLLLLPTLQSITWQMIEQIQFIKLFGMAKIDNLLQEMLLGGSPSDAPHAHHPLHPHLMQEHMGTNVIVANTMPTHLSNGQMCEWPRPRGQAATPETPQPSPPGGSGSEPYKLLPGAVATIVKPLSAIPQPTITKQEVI
Nature of the assay: protein-binding microarray. Conditions: COS-7 nuclear extract on double-stranded Agilent 4x180k PBM; binding buffer, salt, pH and temperature not given; high values mean tight binding; double strand, one strand shown; sequences stand for … in …GCCTAGGGAGATTAGAGTATCGGTCGA
On to TGACACCTAGCTGAGCAGGGGACTAAGAGC, for which the binding signal (log2 normalized intensity) is -1.06.
Under TGACTGATTCCTGCTGAGAGAGCAGGTTGA stands 0.56; under CTGTCCCTCAGTGTGGGACTTTGGTCTGCT, 4.15.
Under GCAGAAAACGCAATTGCCCTACAGCTCCTG stands -1.11; under ATTCCAAGAAGGCAGACTCAAGATAGAGGG, -1.09.
Under AGCTGTTATCTTGGTGCCTGCAGAGCCTCC stands -0.0827.
ACCAAGTACCGCAAACAAGGTGGCTTGAAA: the binding signal (log2 normalized intensity) was -1.16.
Then TTGGAGAAAAAAAACCATTGCAAATTGGAT, with -0.388; and GGCCAAAGTACGCTCCACCCCTCAGCCTTT, with 3.58.
Under GCGGCTCCGGGAGCTGGCGGCGCGGCCGGA stands -0.587.
With CCGGAGAGGCTTATTCCGTACAAGGATTCA, the binding signal (log2 normalized intensity) was -1.13.
With CAAGCCTGCCGAGGTGTCCTGTAAATAGTG, the binding signal (log2 normalized intensity) was found to be 0.465.
Then ACGCTGTTGTCTGTGACTGGGGTCAAACTC, with 3.88; and TTGCAATAAAAGATTGCATCTGTTTTTATT, with -1.05.
Under AGCAGGCCTCGGGCCTGCGAGGTTACAGGG stands 0.483; under CTAACATTCAGAGGTCAGGGGAGAGAGGCA, -1.09.
Under CCCAAAGGCATGAATAGAATGCAACCAAGT stands -1.21; under ATCCGCTAATGACACCAGGGAACACACCAT, -0.7.
As to GAGGTGACCCTTGCACTCATACTTGAAGAC, the binding signal (log2 normalized intensity) amounted to 3.57.
Take CCCTCAGGGATCTTTGCACTTGATGTTCCC: the binding signal (log2 normalized intensity) was 1.67.
As to TCAGGTAAAGATATGGAACACTTTCAGAGA, the binding signal (log2 normalized intensity) was -0.411.
Turning to TCCAGGAGGGGAGGAGGGTCAAAACTTCAG, the binding signal (log2 normalized intensity) was -1.16.
Then AAGGCCTTAAAGTGTAAATATTTGAGGACA, with 0.773; and CCAAACTGGTTTCTCCGCTCGGGGAGGTGC, with -1.12; and TCTGACCCATTCCTTCTCACCGGGTGGAGC, with 0.981.
With ATCATCTACTATGTGCCAGACACTGCTCTA, the binding signal (log2 normalized intensity) was -1.
Then CCATTGTATGAGGGTGAAGTTTGGCAATTA, with 0.209; and TTAGTTCTTTGTAGGAAGGCTTTGAAGTCT, with 1.31; and TCCAGACTTTGTACAAGGGCACTAGCTCTT, with -0.263.
As to ATTCCTACTAATTTTGTTTCCTAGTTCAAA, the binding signal (log2 normalized intensity) is 0.0056.
Then GAGGAGGCCTTTCCTGACCCCTCCTCCCCC, with 5.59; and GTGGATATTGGGAGGCCCATTGTGCTGGGG, with 0.343; and GCCAGGCAGGACAGTTTTGTGTGTTTAATG, with 1.37.
For the sequence AGCCCTGTTGACATCTTGATTTAGCCCAGT, the binding signal (log2 normalized intensity) amounted to 0.816.
Then TTTGATGGACATTGCTGGTGGTGGTAGATC, with 1.34.
Under CTCATTCTTGGAATGCATTGCAAGTCGTAT stands 1.17; under CCTGTTAAAAACACGAGCTATTGCGAGGTT, -0.496; under TTTTCTATTTCCACTGAGGTCAAGATAAGA, 1.43.
Take TGGAATTTGAACCTACACCTATGTGGTCAA: the binding signal (log2 normalized intensity) came out at 2.3.
Then GCTCATTCCCTAGGGCTCGGCATTCAGACA, with -1.07.
On to TAACCTGCTCTCTCATGCCCTTTGCCTCCC, for which the binding signal (log2 normalized intensity) is 4.41.
In the case of TCTTTCCACACAGCCTGTCAAAGGGAGAAA, the binding signal (log2 normalized intensity) is -0.976.
Consider GAAGGTGCTCAGAAAATTGATTCTAATCTC, for which the binding signal (log2 normalized intensity) is -1.06.
Under AATGCACCCAGAACCCCCAGGTCACCCACA stands 4.82; under ACTGGGGACTAGTAGAGTGGGGAGGTAGGG, -1.27; under AGGTCACATAGCAGGCATACCAGGCAGAGG, -1.15.
Under AAAAGCAGGCAACCAAGGGTACACACCGTT stands -1.02; under CACCTTCTACACAGCACCCCTTGCAAATAA, 2.14; under AATGCCAGGACCCTGTGGGACTGGTTTCAA, -1.12.
As to CTGGACTTTCCTTTGTTGGGAGACTTTTTA, the binding signal (log2 normalized intensity) amounted to 1.63.
Take GTCTCCAGCCCCCAGAGGTCACACTGATAC: the binding signal (log2 normalized intensity) stood at 3.45.
In the case of TCCAAAGCCTCATCTGAGATAAGGCAAGTC, the binding signal (log2 normalized intensity) was -1.27.
Then GTCCAAGTTGGTGAGAACAGAGTCTCCGAG, with 0.206.
Then AATAATTTGAAGTTTAGAGATGCCTATAGG, with 0.625.
Turning to CAGTGCTGACCTACCTGACCTGGCATACTA, the binding signal (log2 normalized intensity) was -1.02.
Then CCCACAGTGCATCTGATAAGGTTGTTAAGT, with 1.79; and AACAATGCAAGATAAAAGTGAGCAATGCTG, with -1.25; and GCAGGCAGAGGAACAGAGGGGTCTGAGCAC, with -1.12.
Under GAAGAAGTCATCCATCATTCATACATTTGC stands 0.488; under TGGAGTTAGCTGTCTTTCTGATAAGATTGG, 1.11.
As for AAGGGATCAGAAATTGATTTGTAACCTGCA, the binding signal (log2 normalized intensity) was found to be 0.445.
Under ATTTGTGAAGGTGAATTTCAAGAATCTAAT stands -0.602; under CCATTTTGGACTTTGACCTCCAAAATTATA, 10.4.
Then GTCACAGCCTGGTTCTTGTAGGCCCCTGTG, with 0.117; and TTCTCTCAACCTCTCTGGGGGATGGGTCCA, with 2.62; and AAAGGGAATTTTGGACAAGGTAACCCCCAA, with 3.9.
Take GCTGCCAAGCGTCAGTCATACAGAGCTGTC: the binding signal (log2 normalized intensity) is -1.13.
For CAAAGTTCAAGGTCCAGCCTACCCACCCAC, the binding signal (log2 normalized intensity) is 4.66.
Then GGCCCTTTGCAGCCCGAGCTGCTGGAACAG, with -1.15; and ATGCAACCTTTGTCCTCATTGAGCCCTCCC, with 3.55.
Under GGTGAAGGATGGAATGCTGAAGGGAAGGCT stands -0.887; under TAAGCAAACATTCCTCCCTCCCTCTTCCCT, 2.6.
Under GAAGTACAACTTCAGCAATGAAAGATGTTT stands -0.299.

The record behind these values is article PMC10726135.
